# Reference: the supplement of paper PMC3334620
# The full ranking holds about 33,000 sequences; the median of “E-score (-0.5 to 0.5)” is about -0.012, and the highest 2% start at about 0.27. The list shows a part of the results.
# Molecular target: T1, Vhr1 (UniProt P40522)
# T1 sequence: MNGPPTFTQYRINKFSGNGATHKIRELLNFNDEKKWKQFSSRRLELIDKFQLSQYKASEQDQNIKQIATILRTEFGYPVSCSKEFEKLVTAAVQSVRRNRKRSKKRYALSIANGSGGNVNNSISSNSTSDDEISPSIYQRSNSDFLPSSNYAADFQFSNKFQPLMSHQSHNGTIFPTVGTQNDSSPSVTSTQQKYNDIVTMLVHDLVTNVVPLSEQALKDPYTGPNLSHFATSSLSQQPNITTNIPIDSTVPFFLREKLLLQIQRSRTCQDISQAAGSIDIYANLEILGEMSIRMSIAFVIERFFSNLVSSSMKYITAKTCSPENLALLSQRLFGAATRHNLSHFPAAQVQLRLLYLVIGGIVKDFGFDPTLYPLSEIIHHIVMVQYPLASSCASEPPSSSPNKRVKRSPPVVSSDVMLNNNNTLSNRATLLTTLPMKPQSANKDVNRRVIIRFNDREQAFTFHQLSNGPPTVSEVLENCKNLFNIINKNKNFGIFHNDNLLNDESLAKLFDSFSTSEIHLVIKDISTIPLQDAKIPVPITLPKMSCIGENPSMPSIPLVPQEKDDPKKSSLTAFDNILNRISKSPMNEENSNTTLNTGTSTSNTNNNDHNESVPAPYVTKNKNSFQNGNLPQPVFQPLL
# Test: PBM E-score (8-mer binding enrichment) (E-score (-0.5 to 0.5)); higher = stronger / more preferred TF binding; most listed sequences are background and not binding sites
# Settings: protein concentration: 200 nM; construct: GST-full length
# Method in brief: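 E-scores (a modified Wilcoxon-Mann-Whitney statistic) were assigned by the Universal PBM Analysis Suite to every ungapped eight-base word pooled with its reverse complement. The input came from universal all-10-mer Agilent arrays made double-stranded by primer extension and probed with GST-tagged yeast transcription factors at about 100-200 nM. Fluorescent anti-GST detected bound protein, and masliner normalised the scans.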
row,Sequence,PBM E-score
1,TATTCGAA,-0.245
2,GTACGCAC,-0.061
3,GAGTCCAA,0.179
4,CCATCGTC,0.123
5,CACTGGTA,0.0975
6,GGTACACC,-0.031
7,AATAGAAT,-0.00178
8,ATCACTAG,0.204
9,CACGTCGG,-0.188
10,CAATCGGA,0.058
11,CCTGTACG,-0.0115
12,AGTGTCGG,0.166
13,ATAAAAGC,-0.181
14,AGTGGTTC,0.116
15,TTACCAAA,-0.0143
16,GATGAGGC,-0.0851
17,ACGTCAGT,-0.0497
18,GACGTATA,-0.0619
19,CACGCCAA,-0.0734
20,ACGTTTTG,-0.136
21,CGCGGTTA,0.102
22,GGCGAGCA,-0.029
23,GTCTAAAA,-0.383
24,CCGGTGAG,0.0279
25,GGATTGCA,0.222

row,Sequence,PBM E-score
1,AAAGGTGA,-0.00246
2,GGGAGATA,-0.105
3,CCGATCGC,-0.141
4,AGAGAATC,0.0515
5,CGAACACA,0.0995
6,TCATCGAA,0.0264
7,AGTATGAT,0.271
8,GCCCGCGC,0.186
9,AATCGTCA,0.0876
10,CAGGCAGG,0.0801
11,ACCGTAGG,-0.255
12,CACCCCTG,0.0204
13,AATCGTGA,0.0588
14,CGGCGACG,0.0639
15,CGCGTTAA,-0.0336
16,CCTATCCG,-0.132
17,AGAAAAGG,0.086
18,GATGATAC,0.0656
19,TACATACA,0.228
20,ATAAACGG,-0.0453
21,GCTAATAA,-0.0618
22,CGCGTGCA,-0.0837
23,CGAATCAA,0.127
24,CTCAGTCC,-0.0479
25,CAACCATA,0.0913

row,Sequence,PBM E-score
1,ATGCATAG,0.013
2,CGCTAAGA,-0.0237
3,GCGTAAGC,-0.199
4,CCGTGTAG,0.158
5,CAGCTATA,0.0587
6,AGGGTCAA,0.0107
7,CCAGCAGC,-0.0972
8,ATAAGTTA,0.0404
9,GGTAATAC,0.14
10,AGCCCTTA,-0.318
11,GTCGTAAC,0.118
12,ACCGATAA,-0.125
13,GAAGCGCA,-0.188
14,GCCTCTAC,-0.15
15,CCTTGCCA,-0.091
16,ATACTAAG,-0.103
17,GAATTCCC,-0.242
18,CCGAGAAA,-0.0769
19,ATGCTGCC,0.00421
20,ACTAGCAG,0.0888
21,CTGTAGTC,0.241
22,AGCTCTAC,-0.221
23,AGAGCAGC,-0.0947
24,TCCATTCA,-0.102
25,CAACTCGG,0.0466

row,Sequence,PBM E-score
1,GACTGACC,-0.0132
2,ACCCACAA,0.248
3,CAAGTTTC,-0.0188
4,ACCATGCT,0.107
5,CTAGCTGC,-0.0727
6,GACCAATA,-0.105
7,AGTGCCAT,-0.134
8,GCACTAGC,-0.0838
9,CCGCCCTC,-0.0458
10,GGCTGCTA,0.0128
11,CCGTCGGA,-0.0573
12,ATCGGCCA,-0.237
13,ACCAGCCA,0.131
14,CACGTACC,-0.0762
15,GACGACGC,-0.049
16,CGTGTCAC,0.126
17,CCTTATTA,-0.0811
18,AAGGCATT,-0.186
19,AAAGGTGT,-0.0992
20,CAGGACTC,0.18
21,CCCCAGAG,-0.156
22,ACCCACTC,0.282
23,AATTGACT,0.149
24,AGCGGTCG,-0.301
25,ATGTTCTA,-0.107

row,Sequence,PBM E-score
1,AAACTTGC,-0.0278
2,ACCTCCCA,-0.119
3,ATACGTCA,-0.105
4,AGCCCCAG,-0.122
5,AATGAGCA,-0.215
6,GCGAAGAC,-0.056
7,CGTTCTTC,-0.00307
8,GAAAACCC,-0.139
9,GTTCACCA,-0.0385
10,AATTCATC,-0.292
11,GCCGAAGC,-0.137
12,AGGTGCCG,-0.0827
13,CCGTAGAG,-0.214
14,CGCTAAAC,-0.156
15,CAGTAAGC,0.0436
16,ATGCCCAG,-0.161
17,CGGGCATC,0.0347
18,GATAATAA,-0.0106
19,CGGAAGTA,-0.175
20,CCCCACCG,0.188
21,GATATTGC,0.0198
22,AGTCCGAA,-0.0324
23,ATAGTTGG,0.0627
24,CCCAAGGG,-0.227
25,GTGACGAA,-0.0752

row,Sequence,PBM E-score
1,ACCGGGAC,0.101
2,AATAAGAG,-0.0226
3,AGGAGTAC,-0.0429
4,AATTTTAT,-0.00812
5,CACCATTC,0.0568
6,ACCAATGA,0.189
7,ATTCAAAC,0.00299
8,ACGGGAGA,-0.101
9,ACAGGTTA,-0.0957
10,CCCAACCA,0.275
11,AGTAGTCG,0.292
12,TGCGTAAA,-0.0943
13,TATGCTCA,0.0368
14,ATGTCCAA,-0.0115
15,CCTTGCAA,-0.201
16,GCTGTGAA,-0.0735
17,GGGGGGAC,-0.167
18,CCGCTGAG,-0.122
19,ACTTGGAC,-0.0761
20,ACCTTCTC,-0.0296
21,ACCTGCCG,-0.0293
22,CAGTGATG,0.088
23,AAAAAATC,-0.258
24,AGAACACA,0.0953
25,AGGTTAGC,-0.19

row,Sequence,PBM E-score
1,CTATGTGA,0.257
2,CGAACATA,0.192
3,CAGTCAAG,0.0145
4,GGATCCCA,0.0078
5,GCACCTAC,-0.137
6,TAGACCAA,-0.0666
7,AGACATAG,0.0373
8,TCAATGAA,0.0609
9,ATTGCGCC,-0.0633
10,AGCGGCTA,0.0207
11,AGTTCGTG,0.154
12,CGTTGCTA,-0.00248
13,CTTAACGA,-0.0688
14,CGTGTTGA,0.155
15,AGCTATCG,-0.0401
16,CCAGCCAA,-0.119
17,AGCTCACT,0.073
18,GTCAGGCA,-0.0168
19,ACAAAGAG,-0.0915
20,CAGTCGGC,0.0497
21,CGGATACG,0.0224
22,ATCTACGG,0.00971
